Source: PMC7096384, “Antiviral Activity of Chicken Cathelicidin B1 Against Influenza A Virus” (Frontiers in Microbiology, 2020)

Key:
H3N1 IAV = test: Electron microscopy of virus incubated with peptide; parameters: species or system Influenza A virus; settings: 1 h 37°C
IAV = settings: ref Tripathi et al., 2013, cited from earlier work
H1N1 virus = format: cell-based, Influenza A virus; settings: H1N1, HD11 cells
NA of H1N1/PR8 = test: MUNANA neuraminidase activity assay; settings: CATH-B1 0–40 μM, 1 h 37°C with IAV, then MUNANA 1 h; two independent experiments
[1] = tested on: H1N1/PR8 (NA cleavage of fetuin, dependent on HA receptor binding); test: ELLA solid phase cleavage assay with fetuin; settings: 5 μM CATH-B1, IAV PR8, 2 h 37°C, pH 6; two independent experiments

LLGDFFRKSKEKIGKEFK RIVQRIKDFLRNLVPRTES [LL-37, human cathelicidin, 37 amino acids, used for comparison, reference compound]
aggregation of viral particles (electron microscopy) (H3N1 IAV; 20 μM peptide): some smaller aggregates were observed
alteration of the viral structure (electron microscopy) (H3N1 IAV; 20 μM peptide): no clear alteration of the viral structure
disruption of the IAV viral membrane (IAV; in vitro): directly induce disruption of the IAV viral membrane
HA-receptor binding, virus binding to and uptake into cells (IAV; Tripathi et al., 2015): did not inhibit HA-receptor binding and failed to inhibit virus binding to and uptake into cells

PIRNWWIRIWEWLNGIRK RLRQRSPFYVRGHLNVTSTPQP [CATH-B1]
antiviral activity after mixing peptide and virus, then treatment with Capto Core 700 beads (H1N1 virus; 30 min 37°C pre-incubation, beads 20 min 4°C): the antiviral activity of CATH-B1 was maintained
antiviral effect when peptide is incubated with beads prior to virus addition (H1N1 virus): very little antiviral effect
aggregation of viral particles (electron microscopy) (H3N1 IAV; 5 μM peptide): smaller aggregates were observed
aggregation of viral particles (electron microscopy) (H3N1 IAV; 20 μM peptide): large aggregates were observed
alteration of the viral structure (electron microscopy) (H3N1 IAV; 20 μM peptide): no clear alteration of the viral structure
inhibition of NA activity (MUNANA substrate) (NA of H1N1/PR8): no inhibition of NA activity was observed
cleavage of sialic acids on fetuin (ELLA) [1]: inhibited cleavage of sialic acids on fetuin

RFGRFLRKIRRFRPKVTITIQGSARF [CATH-2, chicken cathelicidin, 26 amino acids]
aggregation of viral particles (electron microscopy) (H3N1 IAV; 20 μM peptide): some smaller aggregates were observed
alteration of the viral structure (electron microscopy) (H3N1 IAV; 20 μM peptide): no clear alteration of the viral structure
